The whole screen tested about 310,000 compounds, of which about 14,000 (4.5%) showed an effect of 50% or more. The effect is printed as a negative number. This is one part of the list.
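Also: peak tail current of the secondary pulse compared with the same well before compound.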

human ether-à-go-go-related gene (hERG) potassium channel, sequence (Q12809 whole entry, looked up): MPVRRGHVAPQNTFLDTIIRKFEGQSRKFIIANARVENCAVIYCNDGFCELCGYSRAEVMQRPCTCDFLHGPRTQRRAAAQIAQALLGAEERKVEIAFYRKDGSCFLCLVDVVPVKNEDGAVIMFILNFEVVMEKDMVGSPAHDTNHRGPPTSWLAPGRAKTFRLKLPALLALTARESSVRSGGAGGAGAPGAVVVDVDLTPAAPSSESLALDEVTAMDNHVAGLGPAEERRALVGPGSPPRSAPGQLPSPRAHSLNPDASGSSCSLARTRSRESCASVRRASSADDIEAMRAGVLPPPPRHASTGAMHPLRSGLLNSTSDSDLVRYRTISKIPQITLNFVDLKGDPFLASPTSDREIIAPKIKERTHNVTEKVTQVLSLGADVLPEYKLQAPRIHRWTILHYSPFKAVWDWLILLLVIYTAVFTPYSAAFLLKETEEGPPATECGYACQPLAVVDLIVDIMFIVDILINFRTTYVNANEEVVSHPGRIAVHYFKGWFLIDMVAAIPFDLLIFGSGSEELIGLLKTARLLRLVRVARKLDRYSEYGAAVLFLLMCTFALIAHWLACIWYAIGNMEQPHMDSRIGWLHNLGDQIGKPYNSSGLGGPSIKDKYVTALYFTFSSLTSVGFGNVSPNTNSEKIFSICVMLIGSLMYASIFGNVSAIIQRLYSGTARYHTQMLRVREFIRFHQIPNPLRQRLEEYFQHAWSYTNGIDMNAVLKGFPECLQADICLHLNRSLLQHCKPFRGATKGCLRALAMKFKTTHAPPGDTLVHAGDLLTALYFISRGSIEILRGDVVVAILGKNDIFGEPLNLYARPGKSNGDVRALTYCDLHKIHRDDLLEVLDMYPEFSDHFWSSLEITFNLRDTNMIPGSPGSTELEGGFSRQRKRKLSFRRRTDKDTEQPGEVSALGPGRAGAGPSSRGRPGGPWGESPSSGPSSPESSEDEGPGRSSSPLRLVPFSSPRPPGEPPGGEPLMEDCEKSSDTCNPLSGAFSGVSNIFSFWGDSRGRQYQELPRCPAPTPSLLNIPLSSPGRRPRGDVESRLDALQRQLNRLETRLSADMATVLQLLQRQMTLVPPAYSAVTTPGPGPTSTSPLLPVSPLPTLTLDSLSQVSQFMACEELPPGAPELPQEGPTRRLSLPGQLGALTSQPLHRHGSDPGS

The assay concerns the target human ether-à-go-go-related gene (hERG) potassium channel (human, UniProt Q12809). Nature of the assay: primary screen, population patch clamp on CHO cells stably expressing hERG.
On to `COCNc1nc(OCC#N)nc(N(C)C)n1`, for which the “hERG current change (%, negative = inhibition) at 10uM” value is reported as -13.4%.
The result for `COc1cc(S(=O)(=O)Nc2cccc3cn[nH]c23)c(OC)cc1Cl` reads 4.63%; that for `Cc1ccc(NC(=O)Nc2ccc(Cl)c(Cl)c2)nc1`, 21.9%; that for `COC(=O)CNC(c1ccccc1)c1cc(Br)ccc1NC(=O)OCc1ccccc1` (stereo not drawn), 12.9%.
For the molecule `C/C(=N\O)C(=O)C(CN1CCCCC1)CN1CCCCC1`, the “hERG current change (%, negative = inhibition) at 10uM” value stood at 9.94%.
The result for `Cc1cc(C(=O)CSc2nnc(-c3cccnc3)n2-c2ccccc2)c(C)n1CC1CCCO1` (stereo not drawn) reads 0.17%.
`O=C(OCc1c(Cl)cccc1Cl)c1ccccn1`: the “hERG current change (%, negative = inhibition) at 10uM” value worked out at 4.9%.
The result for `CCC(C)(C)NC(=O)C(c1cccn1C)N(Cc1ccc(C)cc1)C(=O)Cn1nnc2ccccc21` (stereo not drawn) reads 18.6%; that for `Cc1nc(SCC(=O)Nc2cccnc2Cl)nc(C)c1C`, 10.2%; that for `CCn1c(-c2ccoc2C)n[nH]c1=S`, 16.1%.
As for `COc1ccc(-c2noc(CCC(=O)O)n2)cc1`, the figure is 6.57%; as for `COc1ccc(C(=O)CC2OC(=O)c3ccccc32)cc1OC` (stereo not drawn), -17%; as for `CCN(C(=O)COC(=O)Cc1c[nH]c2ccccc12)C1CCS(=O)(=O)C1` (stereo not drawn), 2.84%.
The result for `CCN(CC)S(=O)(=O)c1ccc2oc(SCC3CN=C(c4ccc(OC)cc4)S3)nc2c1` (stereo not drawn) reads 23%; that for `CC(C)=CC1C(C(=O)Nc2ccc(Br)cn2)C1(C)C` (stereo not drawn), -8.01%.
In the case of `O=[N+]([O-])c1ccccc1Oc1ccc(S(=O)(=O)N2CCOCC2)cc1`, the “hERG current change (%, negative = inhibition) at 10uM” value was -63.8%.
The result for `COC(=O)C1=C(c2cccc(OCc3ccccc3)c2)C[C@@H]2CC[C@H]1N2C(=O)NCc1ccc(C(C)(C)C)cc1` reads -1.8%.
As for `O=C(NCc1ccccc1F)C1CCCN1C(=O)NCc1ccccc1` (stereo not drawn), the figure is 0.319%; as for `COc1ccccc1C1CC(c2cccs2)=Nc2ccccc2S1` (stereo not drawn), 14.4%.
As for `CCC(=O)NC(NCC1CCCO1)C(Cl)(Cl)Cl` (stereo not drawn), the figure is 9.52%; as for `O=C(CCCCn1c(=S)[nH]c2ccsc2c1=O)NCc1ccco1`, 16.6%; as for `COc1ccc(S(=O)(=O)Nc2nnc(C(C)(C)C)s2)cc1`, 5.14%.
Consider `Cc1noc(C)c1COc1ccc(C(=O)N2CCC(C)CC2)cc1`, for which the “hERG current change (%, negative = inhibition) at 10uM” value is -21.5%.
As for `CC1Cc2cc(/C(O)=C3/C(=O)C(=O)N(CCN4CCOCC4)C3c3cccc(O)c3)ccc2O1` (stereo not drawn), the figure is -0.168%.
With `O=C(C1CCCO1)N1CCN(S(=O)(=O)c2cccc3nsnc23)CC1` (stereo not drawn), the “hERG current change (%, negative = inhibition) at 10uM” value was 7.77%.
As for `CCOc1ccc(N2C(=O)Nc3ccccc3C2(O)C(=O)N2CCN(c3ccccn3)CC2)cc1` (stereo not drawn), the figure is 6.93%.
As for `O=C(CSc1c2c(nc3cc(Cl)ccc13)CCCC2)NCCCN1CCOCC1`, the figure is -21.5%; as for `COc1ccc(C2(C(=O)Nc3ccc(C(=O)N4CCOCC4)cc3)CCOCC2)cc1`, -4.15%.
Regarding `COc1ccc(OCC(=O)Nn2c(-c3ccc(OC)cc3)nc3ccccc3c2=O)cc1`, the “hERG current change (%, negative = inhibition) at 10uM” value came to 4.3%.
As for `Cc1ccccc1NC(=O)c1sc2nc3c(c(-c4ccco4)c2c1N)CCC3`, the figure is 10.5%; as for `COc1ccc(NC(=O)CS(=O)(=O)c2cccc(Cl)c2)cc1`, -3.59%.
The result for `COc1ccccc1NC(=O)CSc1nnc(Cc2cccn2C)n1CCc1ccccc1` reads -20.8%; that for `O=C(c1cccc(F)c1)N1CCN(c2ccc([N+](=O)[O-])c(N3CCOCC3)c2)CC1`, -25%; that for `O=C1CN(C(=O)COC(=O)c2cccc(Br)c2)c2ccccc2N1`, 10.1%.
As for `COc1ccc(O)c2c(=O)c3c(OC)cc4c(c3oc12)C1C=COC1O4` (stereo not drawn), the figure is 4.03%; as for `CC1Sc2ccc(S(=O)(=O)NCCc3ccc(Cl)cc3)cc2NC1=O` (stereo not drawn), 5.57%; as for `COc1ccc(N2CCN(C(=O)c3ccccc3N(C)S(=O)(=O)c3ccccc3)CC2)cc1`, -34.1%.
Take `COc1cccc(NC(=O)CN(C)C(=O)CSCC(=O)Nc2ccc(C)cc2)c1`: the “hERG current change (%, negative = inhibition) at 10uM” value was 2.29%.
The result for `O=C(COc1ccc(Cl)cc1Cl)Nc1nnc(C2=COCCO2)o1` reads 6.77%; that for `Cc1ccnc(NC(=O)CNC(=O)c2ccccc2Br)c1`, 11.1%; that for `CCC1=NN2C(=N)/C(=C\c3cccn3-c3ccc(Cl)cc3)C(=O)N=C2S1`, 3.11%.
As for `CCCC(=O)Nc1nnc(S(=O)(=O)N2CCCCCC2)s1`, the figure is 8.44%; as for `Cc1ccc(N=N/C(=C\O)C(=O)c2ccncc2)cc1`, -7.27%; as for `COc1ccc(CC(C)N2CCN(c3ccccc3)CC2)cc1OC` (stereo not drawn), -64%.
For `Cc1ccc(C)c(CN2C(=O)c3ccccc3S(=O)(=O)c3ccc(C(=O)N4CCN(C)CC4)cc32)c1`, the “hERG current change (%, negative = inhibition) at 10uM” value was -0.799%.

The values above are taken from paper PMC4336329 (PLoS ONE, 2015).
